Measurements reported in PubChem BioAssay (Tox21).
Where “and” joins values, the source holds several entries; their conditions need not be identical. Identical values can stand only once. The inconclusive results got no clear call from the source; some entries with a clear call stand among them for comparison. A potency beside an inconclusive call is a rough fit, not a confirmed value. Calls of active or inactive are those of the source. Unless noted, the call rests on the fitted dose curve; in most records, active means well fitted curve in the direction sought with a large enough effect in the repeat runs; inconclusive means weak or mixed curves; inactive means no such curve, though single readings can be large; an effect the other way counts as inactive or inconclusive.

Assays:
[1] = qHTS assay for identifying genotoxic compounds that show differential cytotoxicity against isogenic chicken DT40 cell lines with known DNA damage response pathways - Rad54/Ku70 mutant cell line (AID 743015); details: DT40 Rad54/Ku70 mutant viability, CellTiter-Glo, 40 h; activity change, negative = cytotoxicity: at 66.8 µM (top of the series); further: nearly all actives have a fitted effect of over 60% in size; on activity change, negative = cytotoxicity: on the % scale 0 is the no-effect control and ±100 the full control effect
[2] = target: Androgen receptor (Homo sapiens) (UniProt P10275); experiment: qHTS assay to identify small molecule agonists of the androgen receptor (AR) signaling pathway (AID 743036; active means well fitted activation curve with a large enough effect in the signal ratio in the repeat runs, with a control signal flat, not every such curve was filed as active; inconclusive means weak or mixed curves, or effect the other way; inactive means no such curve, though single readings can be large or run the other way; the % refers to the signal ratio; on activation: on the % scale 0 is the no-effect control and ±100 the full control effect); details: HEK293 AR-UAS-bla GripTite, beta-lactamase FRET ratio, 16 h; activation: at 62.4 µM (top of the series) unless noted
Chain of UniProt P10275 (P10275 whole entry, looked up): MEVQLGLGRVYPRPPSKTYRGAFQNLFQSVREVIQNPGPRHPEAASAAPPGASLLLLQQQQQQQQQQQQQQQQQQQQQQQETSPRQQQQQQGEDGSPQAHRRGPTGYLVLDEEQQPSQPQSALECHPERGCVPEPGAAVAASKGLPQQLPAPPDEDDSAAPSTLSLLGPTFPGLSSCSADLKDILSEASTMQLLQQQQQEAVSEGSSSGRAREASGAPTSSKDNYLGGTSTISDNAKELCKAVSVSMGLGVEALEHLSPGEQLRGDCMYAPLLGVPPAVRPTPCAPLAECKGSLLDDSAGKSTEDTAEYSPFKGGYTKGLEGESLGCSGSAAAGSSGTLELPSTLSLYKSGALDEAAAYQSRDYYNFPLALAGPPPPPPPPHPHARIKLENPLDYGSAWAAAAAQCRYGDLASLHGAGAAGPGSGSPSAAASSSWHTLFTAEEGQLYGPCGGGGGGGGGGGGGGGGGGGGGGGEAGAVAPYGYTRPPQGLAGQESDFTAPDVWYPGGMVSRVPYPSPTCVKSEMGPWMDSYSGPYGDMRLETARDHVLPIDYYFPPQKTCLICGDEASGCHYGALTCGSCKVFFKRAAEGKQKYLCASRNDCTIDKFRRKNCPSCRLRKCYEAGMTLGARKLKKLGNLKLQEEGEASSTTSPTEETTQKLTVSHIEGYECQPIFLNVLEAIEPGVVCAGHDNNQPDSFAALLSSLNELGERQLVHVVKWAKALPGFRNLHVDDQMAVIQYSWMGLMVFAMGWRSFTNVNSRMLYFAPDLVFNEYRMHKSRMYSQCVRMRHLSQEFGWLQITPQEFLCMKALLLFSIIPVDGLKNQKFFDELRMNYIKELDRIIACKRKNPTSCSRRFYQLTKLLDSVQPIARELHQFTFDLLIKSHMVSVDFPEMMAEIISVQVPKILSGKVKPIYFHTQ
In short: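 HEK293 cells stably carrying a UAS-driven beta-lactamase reporter (GeneBLAzer AR-UAS-bla-GripTite) were plated at 2,000 cells/well, rested 4 h at 37C, then exposed to compounds in DMSO for 16 h. LiveBLAzer B/G FRET substrate was added for 2 h at room temperature; fluorescence read.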

[3] = qHTS assay to identify small molecule antagonists of the androgen receptor (AR) signaling pathway using the MDA cell line - cell viability counter screen (AID 743041; further: nearly all actives have a fitted effect of over 45% in size; on viability change, negative = cytotoxic: on the % scale 0 is the no-effect control and ±100 the full control effect); details: MDA-kb2 viability, CellTiter-Fluor, 16 h, cells co-treated with R1881 androgen agonist; viability change, negative = cytotoxic: at 70.3 µM (top of the series) unless noted
In short: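 qHTS viability read-out; MDA-kb2 AR-luc; R1881-stimulated; 16 h exposure at 37C, 0% CO2; CellTiter-Fluor, 30 min; fluorescence intensity.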

[4] = qHTS assay to identify small molecule antagonists of the thyroid receptor (TR) signaling pathway - cell viability counter screen (AID 743064); details: GH3.TRE-Luc viability, CellTiter-Fluor, 24 h; activity change, negative = cytotoxic: at 70.3 µM (top of the series) unless noted; further: nearly all actives have a fitted effect of over 50% in size
In short: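 GH3.TRE-Luc rat pituitary cells carrying a TRE-luciferase reporter were treated with compound plus 1 nM T3 (final) for 23.5 h at 37 °C. Viability was then read in the same wells by CellTiter-Fluor fluorescence after a further 30 min.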

[5] = qHTS assay to identify small molecule antagonists of the thyroid receptor (TR) signaling pathway (AID 743065); further: nearly all actives have a fitted effect of over 55% in size
In short: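 GH3.TRE-Luc rat pituitary cells carrying two TR response elements driving luciferase were plated for 4 h, given compound plus 1 nM T3 (final), and incubated 23.5 h at 37 C. ONE-Glo luminescence measured reporter inhibition; CellTiter-Fluor fluorescence tracked cytotoxicity.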

Aromatase (Homo sapiens) = Aromatase (Homo sapiens) (UniProt P11511); experiment: qHTS assay to identify aromatase inhibitors (AID 743083); details: MCF-7 aro ERE, testosterone-driven ERE luciferase, 24 h; activity, negative = inhibition: at 70.3 µM (top of the series); further: nearly all actives have a fitted effect of over 55% in size
Chain of UniProt P11511 (P11511 whole entry, looked up): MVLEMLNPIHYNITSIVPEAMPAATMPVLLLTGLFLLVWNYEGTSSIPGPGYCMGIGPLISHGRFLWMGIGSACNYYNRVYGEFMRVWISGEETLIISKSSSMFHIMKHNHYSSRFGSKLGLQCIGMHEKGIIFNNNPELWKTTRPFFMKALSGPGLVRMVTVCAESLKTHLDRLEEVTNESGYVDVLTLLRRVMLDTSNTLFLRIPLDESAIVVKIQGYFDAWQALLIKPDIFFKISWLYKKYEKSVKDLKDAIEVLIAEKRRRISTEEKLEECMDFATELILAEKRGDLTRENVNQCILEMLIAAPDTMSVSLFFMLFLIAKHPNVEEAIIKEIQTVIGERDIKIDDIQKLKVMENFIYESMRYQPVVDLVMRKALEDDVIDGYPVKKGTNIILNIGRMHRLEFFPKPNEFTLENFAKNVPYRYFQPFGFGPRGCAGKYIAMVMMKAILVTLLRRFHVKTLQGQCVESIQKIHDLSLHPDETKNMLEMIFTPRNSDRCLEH

[6] = qHTS assay to identify small molecule antagonists of the estrogen receptor alpha (ER-alpha) signaling pathway - cell viability counter screen (AID 743074; calls by dose curve; further: nearly all actives have a fitted effect of over 45% in size; on activity, negative = cytotoxicity: on the % scale 0 is the no-effect control and ±100 the full control effect)
[7] = qHTS assay to identify small molecule antagonists of the estrogen receptor alpha (ER-alpha) signaling pathway using the BG1 cell line (AID 743080; calls by dose curve;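 further: BG1 cells stimulated with 17beta-estradiol alongside compound; nearly all actives have a fitted effect of over 25% in size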); details: BG1Luc4E2 ERE-luciferase antagonist mode, luminescence; activity change, negative = inhibition: at 70.3 µM (top of the series) unless noted
In short: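 Luminescence from a 4×ERE-luciferase reporter in BG1-Luc-4E2 cells served as read-out. Cells, pre-cultured 5 days in stripped-serum phenol-red-free medium, were exposed to compound with 17beta-estradiol co-stimulation for 21.5 h at 37 C.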

[8] = qHTS assay to identify small molecule antagonists of the androgen receptor (AR) signaling pathway - cell viability counter screen (AID 743033; further: nearly all actives have a fitted effect of over 45% in size); details: AR-bla HEK293 viability, CellTiter-Glo luminescence, 16 h; activity change, negative = cytotoxicity: at 58.5 µM (top of the series) unless noted
[9] = target: Estrogen receptor (Homo sapiens) (UniProt P03372); experiment: qHTS assay to identify small molecule antagonists of the estrogen receptor alpha (ER-alpha) signaling pathway (AID 743069; active means well fitted curve in the direction sought with a large enough effect in the signal ratio in the repeat runs, not every such curve was filed as active; inconclusive means weak or mixed curves, or effect the other way; inactive means no such curve, though single readings can be large or run the other way; the % refers to the signal ratio); details: HEK293 ER-alpha-UAS-bla, beta-lactamase ratio, antagonist mode; activity, negative = inhibition: at 69.4 µM (top of the series) unless noted
Chain of UniProt P03372 (P03372 whole entry, looked up): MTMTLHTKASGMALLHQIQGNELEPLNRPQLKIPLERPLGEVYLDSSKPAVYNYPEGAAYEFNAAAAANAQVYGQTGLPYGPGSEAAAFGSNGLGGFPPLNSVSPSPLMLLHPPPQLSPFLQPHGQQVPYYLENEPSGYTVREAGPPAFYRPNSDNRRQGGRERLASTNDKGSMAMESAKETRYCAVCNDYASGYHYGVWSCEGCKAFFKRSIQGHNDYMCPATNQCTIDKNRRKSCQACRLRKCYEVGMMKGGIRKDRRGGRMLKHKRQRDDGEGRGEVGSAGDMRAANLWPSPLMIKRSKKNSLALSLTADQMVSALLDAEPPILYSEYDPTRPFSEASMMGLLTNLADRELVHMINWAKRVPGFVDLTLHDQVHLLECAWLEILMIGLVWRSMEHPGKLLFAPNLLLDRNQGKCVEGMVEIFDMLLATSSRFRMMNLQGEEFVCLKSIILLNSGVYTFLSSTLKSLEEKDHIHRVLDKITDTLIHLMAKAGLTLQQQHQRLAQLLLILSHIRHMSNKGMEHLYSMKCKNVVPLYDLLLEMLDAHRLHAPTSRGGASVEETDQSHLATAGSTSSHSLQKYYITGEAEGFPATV
In short: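 Screening used a UAS-driven beta-lactamase reporter integrated into HEK293 cells expressing ER-alpha, stimulated with 17beta-estradiol alongside test compounds over 18 hr at 37C; signal came from LiveBLAzer B/G FRET fluorescence.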

[10] = target: Estrogen receptor (Homo sapiens) (UniProt P03372); experiment: qHTS assay to identify small molecule agonists of the estrogen receptor alpha (ER-alpha) signaling pathway using the BG1 cell line (AID 743079); details: BG1Luc4E2 cells, ERE-luciferase agonist, 22 h; activation: at 70.3 µM (top of the series) unless noted; further: nearly all actives have a fitted effect of over 20% in size
[11] = target: Androgen receptor (Homo sapiens) (UniProt P10275); experiment: qHTS assay to identify small molecule antagonists of the androgen receptor (AR) signaling pathway (AID 743035; active means well fitted inhibition curve with a large enough effect in the signal ratio in the repeat runs, not every such curve was filed as active; inconclusive means weak or mixed curves, or effect the other way; inactive means no such curve, though single readings can be large or run the other way; the % refers to the signal ratio); details: HEK293 AR-UAS-bla, R1881-stimulated, beta-lactamase FRET, 16 h; activity change, negative = inhibition: at 58.5 µM (top of the series) unless noted
In short: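 Steps: seed AR-UAS-bla GripTite HEK293 cells, incubate 4 h at 37C; pin in test compound, then add agonist R1881; incubate 16 h at 37C; add LiveBLAzer B/G FRET substrate, 2 h at room temperature; read fluorescence.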

[12] = target: Estrogen receptor (Homo sapiens) (UniProt P03372); experiment: qHTS assay to identify small molecule agonists of the estrogen receptor alpha (ER-alpha) signaling pathway (AID 743075; calls by dose curve)
Potency means the concentration at half of the fitted maximal effect; tags describe the fitted curve by direction and shape or compound fluorescence and quenching.

NNC(=O)OCc1ccccc1
Potency [1]: inactive
Potency [2]: inactive

O=C(Cl)c1cc(C(=O)Cl)cc(C(=O)Cl)c1
Potency [1]: active: 19.3 µM
Potency [3]: inactive
Potency [4]: inconclusive: 68.6 µM [cytotoxic, single point]
Potency [5]: inconclusive: 68.6 µM [inhibitor, single point]
Potency (Aromatase (Homo sapiens)): inconclusive: 68.6 µM [inhibitor, single point]

O=c1oc2cc(O)ccc2c2oc3cc(O)ccc3c12
Potency [1]: inconclusive: 26.2 µM [cytotoxic, single point]
Potency [6]: inconclusive: 2.1 µM [rising, full curve, poor fit]
Potency [7]: inconclusive: 65.7 µM [rising, partial curve, poor fit]

Nc1ncnc2c1ncn2[C@@H]1O[C@H](CO)[C@@H](O)[C@H]1O
Potency [1]: inconclusive: 29.8 µM [rising, partial curve, poor fit]
Potency [8]: inconclusive: 10.7 µM [rising, single point]
Potency [6]: inactive
Potency [7]: inactive

c1ccc(CNCCNCc2ccccc2)cc1
Potency [1]: inconclusive: 29.8 µM [cytotoxic, partial curve]
Potency [5]: inconclusive: 21.1 µM [inhibitor, partial curve, poor fit]
Potency [9]: inactive

O=C1c2ccccc2C(=O)c2cc(Cl)ccc21
activity change, negative = cytotoxicity [1]: inactive: 2.51% [at 8.55 µM]
activity change, negative = cytotoxic [4]: inconclusive: 38.9% [at 8.44 µM]
activity, negative = cytotoxicity [6]: inactive: -11.1% [at 6.72 µM]
Potency [10]: inconclusive: 3.77 µM [activator, partial curve, poor fit]

CCCN(CCc1cccs1)[C@H]1CCc2c(O)cccc2C1
Potency [1]: active: 23.7 µM
Potency [11]: inconclusive: 16.9 µM [rising, partial curve]
Potency [2]: inconclusive: 26.8 µM [rising, partial curve, poor fit]
Potency [4]: inconclusive: 29.8 µM [cytotoxic, single point]
Potency [5]: inconclusive: 29.8 µM [inhibitor]
Potency [7]: inactive

CCC(C)n1ncn(-c2ccc(N3CCN(c4ccc(OC[C@H]5CO[C@](Cn6cncn6)(c6ccc(Cl)cc6Cl)O5)cc4)CC3)cc2)c1=O (some centres undefined)
Potency [1]: active: 0.596 µM
Potency [4]: inconclusive: 8.41 µM [cytotoxic, partial curve, poor fit]
Potency [9]: inconclusive: 6.74 µM [inhibitor]
Potency [10]: inconclusive: 1.88 µM [inhibitor, full curve]
Potency [7]: active: 13.3 µM

Nc1ccc2cc(S(=O)(=O)O)ccc2c1
Potency [1]: inactive
Potency [8]: inactive
Potency [12]: inactive

COc1ccc(C(=O)CC(=O)c2ccc(C(C)(C)C)cc2)cc1
Potency [1]: inconclusive: 65.8 µM [cytotoxic, partial curve, poor fit]
Potency [8]: inconclusive: 21 µM [cytotoxic, partial curve, poor fit]
Potency [5]: active: 29.8 µM and inconclusive: 65.8 µM [inhibitor]
Potency (Aromatase (Homo sapiens)): inactive

CN(C)C(=N)N=C(N)N
Potency [8]: inactive

C[C@H](CCC(=O)O)[C@H]1CC[C@H]2[C@@H]3C(=O)C[C@@H]4CC(=O)CC[C@]4(C)[C@H]3CC(=O)[C@]12C
activity change, negative = cytotoxicity [1]: inconclusive: -42.5%
Potency [3]: inconclusive: 0.0139 µM [cytotoxic, full curve, poor fit]
Potency [4]: inconclusive: 0.237 µM [cytotoxic, full curve, poor fit]
Potency [5]: inconclusive: 0.335 µM [inhibitor, full curve, poor fit]
Potency [6]: inactive
Potency [10]: inactive

C[C@@H]1C[C@H]2O[C@@]3(O[C@@H]2C(C)(C)O)[C@H](O)[C@@]2(C)[C@@H]4CC[C@H]5C(C)(C)[C@@H](O[C@@H]6OC[C@@H](O)[C@H](O)[C@H]6O)CC[C@@]56C[C@@]46CC[C@]2(C)[C@@H]13
Potency [1]: inconclusive: 17 µM [cytotoxic, single point]
activity change, negative = inhibition [11]: inconclusive: 8.49%
Potency [4]: inactive
Potency [5]: inconclusive: 17 µM [inhibitor]
Potency [7]: inactive

CC(=O)/C=C/C1=C(C)CCCC1(C)C
Potency [1]: inconclusive: 61.1 µM [cytotoxic, single point]
Potency [8]: inactive
Potency [6]: inconclusive: 0.692 µM [rising, full curve, poor fit]
Potency [12]: inconclusive: 56 µM
activation [10]: inconclusive: -6.29% [phenotype inactive] [at 95 µM]

CCN(CCCc1ccccc1)CCCc1ccccc1
Potency [1]: active: 2.27 µM
Potency [5]: inconclusive: 11.4 µM [inhibitor]
Potency [6]: inactive
